According to the supplement of paper PMC4604168 (melanoma cell lines):
This is one part of the list. Most values come without repeats; read them as rough.

Legend:
Experiment in all cases: cell count relative to DMSO control; melanoma cells; higher = more viable cells
Details in all cases: library dose: standard library concentration; 72 h
G361 = tested on: G361
IPC-298 = tested on: IPC-298
IST-MEL1 = tested on: IST-MEL1
LB2518-MEL = tested on: LB2518-MEL
LOXIMVI = tested on: LOXIMVI
MEL-HO = tested on: MEL-HO
MZ2-MEL = tested on: MZ2-MEL
MeWo = tested on: MeWo
RPMI7951 = tested on: RPMI7951
RVH-421 = tested on: RVH-421
SkMel28 = tested on: SkMel28
SkMel2 = tested on: SkMel2
SkMel30 = tested on: SkMel30
SkMel5 = tested on: SkMel5
UACC257 = tested on: UACC257
UACC62 = tested on: UACC62
WM115 = tested on: WM115
WM1716 = tested on: WM1716
WM1745 = tested on: WM1745
WM3526 = tested on: WM3526
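Further: cells treated in 1,536-well plates, then fixed and DAPI-stained, with nuclei counted from automated high-throughput microscope images.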

Compound | cell count (G361) | cell count (IPC-298) | cell count (IST-MEL1) | cell count (LB2518-MEL) | cell count (LOXIMVI) | cell count (MEL-HO) | cell count (MZ2-MEL) | cell count (MeWo) | cell count (RPMI7951) | cell count (RVH-421) | cell count (SkMel28) | cell count (SkMel2) | cell count (SkMel30) | cell count (SkMel5) | cell count (UACC257) | cell count (UACC62) | cell count (WM115) | cell count (WM1716) | cell count (WM1745) | cell count (WM3526)
C[C@]12O[C@H](C[C@]1(O)CO)n1c3ccccc3c3c4c(c5c6ccccc6n2c5c31)CNC4=O [Lestaurtinib] + CCN(CC)CCNC(=O)c1c(C)[nH]c(/C=C2\C(=O)Nc3ccc(F)cc32)c1C [sunitinib] (first compound 0.02 µM, partner dose 2 µM) | 46.2% | 46.7% | 106% | 53.4% | 155% | 71.8% | 73.3% | 45.5% | 57.8% | 92.3% | 67.3% | 50.3% | 53% | 34% | 85.8% | 49% | 59% | 94.9% | 49.4% | 39.7%
N.N.[Cl][Pt][Cl] [cisplatin] + CCCS(=O)(=O)Nc1ccc(F)c(C(=O)c2c[nH]c3ncc(Cl)cc23)c1F [PLX4720] (first compound 8 µM, partner dose 0.4 µM) | 83.5% | 92.9% | 95.5% | 103% | 73.9% | 85.4% | 79.2% | 82% | 107% | 65.4% | 63.6% | 86.5% | 93.1% | 94.1% | 83.8% | 66.6% | 90.4% | 74.6% | 95.5% | 64.8%
C[As](C)SC[C@H](NC(=O)CC[C@H](N)C(=O)O)C(=O)NCC(=O)O [Darinaparsin] + O=C(Nc1ccccc1)c1cc([N+](=O)[O-])ccc1Cl [GW9662] (first compound 2 µM, partner dose 10 µM) | 59.8% | 91.4% | 1.55% | 74.8% | 77.5% | 78% | 86.4% | 58.9% | 95.2% | 73.5% | 53% | 85% | 62.3% | 47% | 62.2% | 73.9% | 63.2% | 49.2% | 80.8% | 67.2%
Cn1cc(C2=C(c3cn(C4CCN(Cc5ccccn5)CC4)c4ccccc34)C(=O)NC2=O)c2ccccc21 [Enzastaurin] + Cn1nnc2c(C(N)=O)ncn2c1=O [temozolomide] (first compound 4 µM, partner dose 10 µM) | 68.1% | 83.6% | 79.3% | 67.4% | 82.8% | 85.1% | 91.9% | 82.3% | 47.9% | 91.5% | 37.2% | 65.4% | 60.8% | 87.9% | 100% | 55.9% | 97.1% | 55.6% | 42.4% | 77.5%
C[C@]12O[C@H](C[C@]1(O)CO)n1c3ccccc3c3c4c(c5c6ccccc6n2c5c31)CNC4=O [Lestaurtinib] + NC(=O)Nc1cc(-c2cccc(F)c2)sc1C(=O)N[C@H]1CCCNC1 [AZD7762] (first compound 0.02 µM, partner dose 0.1 µM) | 85.8% | 70.3% | 97.1% | 49.2% | 68.5% | 71.5% | 117% | 71% | 47.4% | 80.6% | 44.1% | 76.3% | 65.1% | 71.9% | 109% | 79.5% | 56.3% | 78.8% | 68% | 63.4%
Cn1cc(C2=C(c3cn(C4CCN(Cc5ccccn5)CC4)c4ccccc34)C(=O)NC2=O)c2ccccc21 [Enzastaurin] + COc1cc2c(Oc3ccc4[nH]c(C)cc4c3F)ncnc2cc1OCCCN1CCCC1 [cediranib] (first compound 4 µM, partner dose 2 µM) | 65.9% | 112% | 71.3% | 53.7% | 63% | 92% | 107% | 80.6% | 14.8% | 48.9% | 74.1% | 73.4% | 103% | 90.4% | 107% | 58.2% | 72.8% | 68.4% | 15.2% | 88.1%
C[C@]12O[C@H](C[C@]1(O)CO)n1c3ccccc3c3c4c(c5c6ccccc6n2c5c31)CNC4=O [Lestaurtinib] + C#Cc1cccc(Nc2ncnc3cc(OCCOC)c(OCCOC)cc23)c1 [erlotinib] (first compound 0.02 µM, partner dose 4 µM) | 57.3% | 46.7% | 87.1% | 46.1% | 92% | 72.1% | 59.9% | 66% | 59.7% | 65.6% | 53.5% | 84.5% | 64% | 46.2% | 91.5% | 42.7% | 54.7% | 65.4% | 73.3% | 59.4%
Cn1cc(C2=C(c3cn(C4CCN(Cc5ccccn5)CC4)c4ccccc34)C(=O)NC2=O)c2ccccc21 [Enzastaurin] + Cc1cc(Nc2cc(N3CCN(C)CC3)nc(/C=C/c3ccccc3)n2)n[nH]1 [ENMD2076] (first compound 4 µM, partner dose 0.2 µM) | 75.8% | 67.4% | 66.9% | 47.4% | 61.1% | 78.9% | 88.3% | 79.3% | 36.3% | 49.4% | 45.7% | 52.7% | 89.4% | 61.1% | 72.1% | 45.2% | 72.4% | 71.4% | 11.7% | 78.2%
C[As](C)SC[C@H](NC(=O)CC[C@H](N)C(=O)O)C(=O)NCC(=O)O [Darinaparsin] + COc1ccc2c(c1)CCC1C2CCC2(C)C(NCCCCCCN3C(=O)C=CC3=O)CCC12 [U73122] (first compound 2 µM, partner dose 2 µM) | 86.3% | 101% | 98.7% | 141% | 120% | 99.2% | 77.1% | 82.8% | 120% | 98.5% | 83.4% | 88.2% | 119% | 73.6% | 86.4% | 102% | 72.2% | 3.21% | 92.8% | 87%
Cn1cc(C2=C(c3cn(C4CCN(Cc5ccccn5)CC4)c4ccccc34)C(=O)NC2=O)c2ccccc21 [Enzastaurin] + CC(C)C[C@H](NC(=O)[C@H](Cc1ccccc1)NC(=O)c1cnccn1)B(O)O [Bortezomib] (first compound 4 µM, partner dose 0.005 µM) | 0.68% | 6.91% | 4.65% | 2.38% | 17.6% | 13.4% | 3.82% | 11.4% | 1.43% | 2.04% | 22.4% | 16.2% | 22.6% | 19% | 70.1% | 53.5% | 17.4% | 21.6% | 19.1% | 22.7%
C[As](C)SC[C@H](NC(=O)CC[C@H](N)C(=O)O)C(=O)NCC(=O)O [Darinaparsin] + O=C(O)c1ccc(-c2c[nH]c3ncc(-c4ccccc4)cc23)cc1C1CCCC1 [GSK650394] (first compound 2 µM, partner dose 0.8 µM) | 55.2% | 77.9% | 114% | 78% | 81.1% | 63.3% | 86.4% | 71% | 63.3% | 27.9% | 64.3% | 62.4% | 83.3% | 55.9% | 72% | 74.9% | 79.2% | 77.4% | 84.1% | 68.2%
C[As](C)SC[C@H](NC(=O)CC[C@H](N)C(=O)O)C(=O)NCC(=O)O [Darinaparsin] + CCCCCCCCCCCC1=C(O)C(=O)C=C(O)C1=O [Embelin] (first compound 2 µM, partner dose 6 µM) | 66.6% | 71% | 59.9% | 108% | 88.2% | 75.2% | 95.2% | 110% | 82.2% | 64.1% | 99.2% | 78.6% | 87% | 74.9% | 82.5% | 96.6% | 80.4% | 66.3% | 98% | 80.4%
N.N.[Cl][Pt][Cl] [cisplatin] + Clc1ccc(Nc2nnc(Cc3ccncc3)c3ccccc23)cc1 [vatalanib] (first compound 8 µM, partner dose 10 µM) | 67.7% | 74.3% | 76% | 81.7% | 42.6% | 62.7% | 94.8% | 84.5% | 54.7% | 93.9% | 79.7% | 95.2% | 70.5% | 84.2% | 65.8% | 66.8% | 87.6% | 86% | 69.8% | 94%
C[C@]12O[C@H](C[C@]1(O)CO)n1c3ccccc3c3c4c(c5c6ccccc6n2c5c31)CNC4=O [Lestaurtinib] + C=CCn1c(=O)c2cnc(Nc3ccc(N4CCN(C)CC4)cc3)nc2n1-c1cccc(C(C)(C)O)n1 [MK1775] (first compound 0.02 µM, partner dose 0.1 µM) | 73.1% | 60.2% | 93.8% | 45.7% | 103% | 82.4% | 118% | 56.2% | 45.8% | 73.6% | 47.2% | 70% | 62.6% | 40.6% | 82.9% | 70.2% | 50.5% | 66.3% | 40% | 57.2%
Cn1cc(C2=C(c3cn(C4CCN(Cc5ccccn5)CC4)c4ccccc34)C(=O)NC2=O)c2ccccc21 [Enzastaurin] + CO[C@H]1C[C@@H]2CC[C@@H](C)[C@@](O)(O2)C(=O)C(=O)N2CCCC[C@H]2C(=O)O[C@H]([C@H](C)C[C@@H]2CC[C@@H](OCCO)[C@H](OC)C2)CC(=O)[C@H](C)/C=C(\C)[C@@H](O)[C@@H](OC)C(=O)[C@H](C)C[C@H](C)/C=C/C=C/C=C/1C [everolimus] (first compound 4 µM, partner dose 0.1 µM) | 78.8% | 73.8% | 99.6% | 71.4% | 72.1% | 84.9% | 77.8% | 78.2% | 65.1% | 92.8% | 68.8% | 76.5% | 74.7% | 77.6% | 127% | 62.9% | 84.7% | 85.4% | 89.8% | 99.2%
